From PMC4558169
No constants are given. Whether binding was seen depends on the method and setting. For some of these results: In cells and extracts the contact can be indirect. Some binding calls cover weakened binding; strength is not graded here. For some of these results: Where a sequence is shown, tags or fusion partners need not be part of it. Values belong to the substance of their own block, whether it stands above or below them.

By UniProt entry, the sequences of proteins in these tests, tags left out. Where a name states a change or a piece, a line headed by the entry shows the natural chain unless it says otherwise. Chains listed by the source or under a name are the forms on record and can include a tag or linker. Residues count along the entry.
UniProt P13861: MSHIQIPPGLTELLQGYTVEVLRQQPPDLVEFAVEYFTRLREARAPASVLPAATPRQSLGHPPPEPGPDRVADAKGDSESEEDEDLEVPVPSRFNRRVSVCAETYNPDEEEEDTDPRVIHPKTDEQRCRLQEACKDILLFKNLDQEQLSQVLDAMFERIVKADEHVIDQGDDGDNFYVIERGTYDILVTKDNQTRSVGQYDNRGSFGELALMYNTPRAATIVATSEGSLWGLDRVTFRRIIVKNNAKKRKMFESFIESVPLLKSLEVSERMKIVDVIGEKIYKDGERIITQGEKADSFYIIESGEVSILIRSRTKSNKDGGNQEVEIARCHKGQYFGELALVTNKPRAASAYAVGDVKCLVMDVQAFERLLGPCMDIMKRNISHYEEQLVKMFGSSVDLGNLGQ
Ha-tagged D/D domain (Aa1-45) of PKA-RIIα: residues 1-45 of P13861
Ha-tagged PKA-RIIα D/D domain deletion mutant (Δ1-45): residues 46-404 of P13861

What was measured:
[1] = target: Ha-tagged D/D domain (Aa1-45) of PKA-RIIα (human) (UniProt P13861); test: co-IP; two tagged proteins (Flag, Ha, His or Myc) co-expressed in HEK293T cells; lysates immunoprecipitated with an anti-tag antibody, partner detected by immunoblot with the other anti-tag antibody; in Figure 4E cells untreated, treated 10 min with forskolin or with forskolin + PKImyr
[2] = target: Ha-tagged PKA-RIIα (type II regulatory subunit of PKA), full length (human) (UniProt P13861); test: as above
[3] = target: Ha-tagged PKA-RIIα D/D domain deletion mutant (Δ1-45) (human) (UniProt P13861); test: as above
[4] = target: T1, Myc-tagged 14-3-3θ fragment 81-160 (human) (UniProt P27348); test: as above
T1 sequence: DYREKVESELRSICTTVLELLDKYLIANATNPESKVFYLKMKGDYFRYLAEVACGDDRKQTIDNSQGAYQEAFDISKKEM

[5] = target: T2, Myc-tagged 14-3-3θ, full length (human) (UniProt P27348); test: as above
T2 sequence: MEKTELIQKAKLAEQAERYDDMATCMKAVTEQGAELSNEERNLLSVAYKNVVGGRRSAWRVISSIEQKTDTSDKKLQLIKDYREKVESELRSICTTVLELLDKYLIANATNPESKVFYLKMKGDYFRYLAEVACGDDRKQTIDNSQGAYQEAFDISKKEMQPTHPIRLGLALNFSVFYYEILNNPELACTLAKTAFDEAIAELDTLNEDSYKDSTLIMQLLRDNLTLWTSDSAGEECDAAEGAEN

[6] = target: endogenous RAI16 (human (endogenous in HEK293T)) (UniProt Q86V87); test: co-IP; endogenous proteins of HEK293T lysates, immunoprecipitated with an antibody against one protein and blotted for the other
[7] = target: T3, endogenous 14-3-3θ (human (endogenous in HEK293T)) (UniProt P27348); test: as above
T3 sequence: T2 sequence

[8] = target: endogenous PKA-RIIα (human (endogenous in HEK293T)) (UniProt P13861); test: as above
[9] = target: His-tagged fusion protein of PKA-RIIα, purified (human) (UniProt P13861); test: ELISA; 2 ug purified PKA-RIIα coated overnight at 4°C, blocked with 3% BSA in PBST; purified RAI16 alone or with sHt31 or sYF, 1 h at 37°C; detected with anti-RAI16 antibody, HRP anti-rabbit IgG and TMB; both purified
[10] = target: Flag-tagged retinoic acid induced 16 (RAI16), full length (UniProt Q86V87); test: co-IP; Flag-tagged RAI16 and Ha-tagged PKA-RIIα co-expressed in HEK293T cells, lysates immunoprecipitated, without or with peptide sHt31 or sYF (not told whether added to cells or lysate)
[11] = target: T4, Flag-tagged RAI16 Aa352-370 deletion mutant (Δ352-370) (UniProt Q86V87); test: co-IP; two tagged proteins (Flag, Ha, His or Myc) co-expressed in HEK293T cells; lysates immunoprecipitated with an anti-tag antibody, partner detected by immunoblot with the other anti-tag antibody; in Figure 4E cells untreated, treated 10 min with forskolin or with forskolin + PKImyr
T4 sequence: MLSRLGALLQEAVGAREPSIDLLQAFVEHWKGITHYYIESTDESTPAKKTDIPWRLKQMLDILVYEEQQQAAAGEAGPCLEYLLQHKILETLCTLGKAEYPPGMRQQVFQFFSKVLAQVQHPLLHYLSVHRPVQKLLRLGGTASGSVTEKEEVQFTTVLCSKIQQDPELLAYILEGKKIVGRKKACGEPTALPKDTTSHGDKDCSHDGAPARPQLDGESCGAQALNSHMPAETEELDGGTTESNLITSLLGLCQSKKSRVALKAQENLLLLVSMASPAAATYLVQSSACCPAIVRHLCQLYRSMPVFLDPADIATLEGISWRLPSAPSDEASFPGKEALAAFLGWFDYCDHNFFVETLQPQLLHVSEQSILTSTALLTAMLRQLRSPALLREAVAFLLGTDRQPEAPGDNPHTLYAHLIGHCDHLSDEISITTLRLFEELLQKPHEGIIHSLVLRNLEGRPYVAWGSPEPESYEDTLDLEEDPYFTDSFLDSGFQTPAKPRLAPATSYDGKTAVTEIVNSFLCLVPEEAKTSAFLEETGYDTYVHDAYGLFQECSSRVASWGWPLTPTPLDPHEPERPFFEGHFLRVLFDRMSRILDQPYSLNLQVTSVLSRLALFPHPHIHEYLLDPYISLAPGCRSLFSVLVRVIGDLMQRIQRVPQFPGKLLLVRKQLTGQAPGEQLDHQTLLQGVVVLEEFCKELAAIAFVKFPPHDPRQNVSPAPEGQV

[12] = target: T5, Flag-tagged RAI16 fragment 251-500 (UniProt Q86V87); test: as above
T5 sequence: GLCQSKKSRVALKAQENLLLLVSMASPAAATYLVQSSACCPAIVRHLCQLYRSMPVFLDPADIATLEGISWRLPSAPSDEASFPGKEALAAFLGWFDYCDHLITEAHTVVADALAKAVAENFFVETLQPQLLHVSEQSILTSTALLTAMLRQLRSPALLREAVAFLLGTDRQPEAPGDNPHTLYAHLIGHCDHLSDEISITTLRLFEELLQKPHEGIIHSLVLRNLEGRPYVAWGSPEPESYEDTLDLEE

[13] = target: Flag-tagged retinoic acid induced 16 (RAI16), full length (UniProt Q86V87); test: as above

Substance: endogenous PKA-RIIα (from UniProt P13861-1 1-404)
binding [6]: binds

Substance: endogenous RAI16 (from UniProt Q86V87 1-743)
binding [7]: binds
binding [8]: binds

The next lines start with the values.

binding [1]: binds
binding [2]: binds
binding [3]: no binding
binding [4]: binds
binding [5]: binds
Substance: Flag-tagged retinoic acid induced 16 (RAI16), full length (from UniProt Q86V87 1-743)

binding [9]: binds
Substance: His-tagged fusion protein of RAI16, purified (from UniProt Q86V87 1-743)

binding [10]: binds
binding [11]: no binding
binding [12]: binds
binding [13]: binds
Substance: Ha-tagged PKA-RIIα (type II regulatory subunit of PKA), full length (from UniProt P13861-1 1-404)
